A lower IC50 marks a more sensitive line; a limit (>, <) means that the fit lies beyond the doses tested. AUC, from the same fit, is the share of area under the viability curve across the 256-fold dose range; the more sensitive the line, the further below 1. An inferred top dose was derived from the fitted curves, not read from the paper.
Compound: CCc1nc(-c2cccc(C)c2)c(-c2ccnc(NC(=O)c3ccccc3)c2)s1 [TAK-715]
Test: Viability of human cancer cell lines after 72 h of drug (GDSC screen)
Conditions: top dose inferred
Description: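 Human cancer cell lines in 384-well plates, medium with 10% serum, drug for 72 h over a 256-fold dose range (nine 2-fold or five 4-fold steps up to the top dose). Adherent lines were fixed and stained with the nucleic acid dye Syto60, suspension lines read with resazurin; signal relative to control wells, capped at 0 and 100%. One two-parameter sigmoid per drug and line, fitted in a mixed model over all curves with the slope shared within a line.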

Cell Line | AUC | IC50
H2722 (mesothelioma, adherent, top dose 20 µM) | 0.984 | > 20 µM
H2731 (mesothelioma, adherent, top dose 20 µM) | 0.898 | > 20 µM
H2795 (mesothelioma, adherent, top dose 20 µM) | 0.947 | > 20 µM
H2803 (mesothelioma, adherent, top dose 20 µM) | 0.959 | > 20 µM
H2804 (mesothelioma, adherent, top dose 20 µM) | 0.986 | > 20 µM
H2818 (mesothelioma, adherent, top dose 20 µM) | 0.972 | > 20 µM
H2869 (mesothelioma, adherent, top dose 20 µM) | 0.984 | > 20 µM
H3118 (head and neck, adherent, top dose 20 µM) | 0.764 | 7.94 µM
H3255 (lung adenocarcinoma, adherent, top dose 20 µM) | 0.918 | > 20 µM
H-EMC-SS (chondrosarcoma, adherent, top dose 20 µM) | 0.979 | > 20 µM
HA7-RCC (kidney, adherent, top dose 20 µM) | 0.955 | > 20 µM
HAL-01 (lymphoblastic leukaemia, suspension, top dose 20 µM) | 0.754 | 6.03 µM
HARA (lung squamous cell carcinoma, adherent, top dose 20 µM) | 0.819 | 13.9 µM
HC-1 (hairy cell leukaemia, suspension, top dose 20 µM) | 0.888 | > 20 µM
HCC38 (breast, adherent, top dose 20 µM) | 0.945 | > 20 µM
HCC70 (breast, adherent, top dose 20 µM) | 0.963 | > 20 µM
HCC202 (breast, adherent, top dose 20 µM) | 0.885 | > 20 µM
HCC1143 (breast, adherent, top dose 20 µM) | 0.962 | > 20 µM
HCC1187 (breast, suspension, top dose 20 µM) | 0.912 | > 20 µM
HCC1395 (breast, adherent, top dose 20 µM) | 0.972 | > 20 µM
HCC1419 (breast, adherent, top dose 20 µM) | 0.925 | > 20 µM

Cell Line | AUC | IC50
HCC1428 (breast, adherent, top dose 20 µM) | 0.975 | > 20 µM
HCC1500 (breast, adherent, top dose 10.24 µM) | 0.912 | > 10.2 µM
HCC1569 (breast, adherent, top dose 20 µM) | 0.92 | > 20 µM
HCC1599 (breast, suspension, top dose 20 µM) | 0.894 | > 20 µM
HCC1806 (breast, adherent, top dose 20 µM) | 0.932 | > 20 µM
HCC1937 (breast, adherent, top dose 20 µM) | 0.963 | > 20 µM
HCC1954 (breast, adherent, top dose 20 µM) | 0.864 | > 20 µM
HCC2157 (breast, suspension, top dose 20 µM) | 0.965 | > 20 µM
HCC2218 (breast, suspension, top dose 20 µM) | 0.824 | 16.1 µM
HCC2998 (large intestine, adherent, top dose 20 µM) | 0.967 | > 20 µM
HCC-15 (lung squamous cell carcinoma, adherent, top dose 20 µM) | 0.938 | > 20 µM
HCC-33 (small cell lung carcinoma, adherent, top dose 20 µM) | 0.982 | > 20 µM
HCC-44 (lung adenocarcinoma, adherent, top dose 20 µM) | 0.941 | > 20 µM
HCC-56 (large intestine, adherent, top dose 20 µM) | 0.959 | > 20 µM
HCC-78 (lung adenocarcinoma, adherent, top dose 20 µM) | 0.874 | > 20 µM
HCC-827 (lung adenocarcinoma, adherent, top dose 20 µM) | 0.619 | 2.79 µM
HCE-4 (oesophagus, adherent, top dose 20 µM) | 0.952 | > 20 µM
HCT-15 (large intestine, adherent, top dose 20 µM) | 0.957 | > 20 µM
HCT-116 (large intestine, adherent, top dose 20 µM) | 0.907 | > 20 µM
HD-MY-Z (Hodgkin lymphoma, adherent, top dose 20 µM) | 0.934 | > 20 µM
HDLM-2 (Hodgkin lymphoma, suspension, top dose 20 µM) | 0.92 | > 20 µM

Cell Line | AUC | IC50
HDQ-P1 (breast, adherent, top dose 20 µM) | 0.981 | > 20 µM
HEC-1 (endometrium, adherent, top dose 20 µM) | 0.962 | > 20 µM
HEL (acute myeloid leukaemia, semi-adherent, top dose 20 µM) | 0.896 | 17.3 µM
HGC-27 (stomach, adherent, top dose 20 µM) | 0.907 | > 20 µM
HH (T-cell leukaemia, suspension, top dose 20 µM) | 0.904 | > 20 µM
HL-60 (acute myeloid leukaemia, suspension, top dose 20 µM) | 0.964 | > 20 µM
HLE (liver, adherent, top dose 20 µM) | 0.989 | > 20 µM
HMV-II (melanoma, adherent, top dose 20 µM) | 0.96 | > 20 µM
HN (head and neck, adherent, top dose 20 µM) | 0.848 | 13.5 µM
HO-1-N-1 (head and neck, adherent, top dose 20 µM) | 0.965 | > 20 µM
HO-1-u-1 (head and neck, adherent, top dose 20 µM) | 0.953 | > 20 µM
HOP-62 (lung adenocarcinoma, adherent, top dose 20 µM) | 0.884 | > 20 µM
HOP-92 (large cell lung carcinoma, adherent, top dose 20 µM) | 0.975 | > 20 µM
HOS (osteosarcoma, adherent, top dose 20 µM) | 0.992 | > 20 µM
HPAC (pancreas, adherent, top dose 20 µM) | 0.944 | > 20 µM
HPAF-II (pancreas, adherent, top dose 20 µM) | 0.911 | > 20 µM
HSC-2 (head and neck, adherent, top dose 20 µM) | 0.976 | > 20 µM
HSC-3 (head and neck, adherent, top dose 20 µM) | 0.897 | 18.6 µM
HSC-4 (head and neck, adherent, top dose 20 µM) | 0.969 | > 20 µM
HSC-39 (stomach, suspension, top dose 20 µM) | 0.927 | > 20 µM
HT55 (large intestine, adherent, top dose 20 µM) | 0.979 | > 20 µM

Cell Line | AUC | IC50
HT (B-cell lymphoma, suspension, top dose 20 µM) | 0.964 | > 20 µM
HT-3 (cervix, adherent, top dose 20 µM) | 0.978 | > 20 µM
HT-29 (large intestine, adherent, top dose 20 µM) | 0.958 | > 20 µM
HT-115 (large intestine, adherent, top dose 20 µM) | 0.859 | 14.3 µM
HT-144 (melanoma, adherent, top dose 20 µM) | 0.982 | > 20 µM
HT-1080 (fibrosarcoma, adherent, top dose 20 µM) | 0.985 | > 20 µM
HT-1197 (bladder, adherent, top dose 20 µM) | 0.976 | > 20 µM
HT-1376 (bladder, adherent, top dose 20 µM) | 0.928 | > 20 µM
HTC-C3 (thyroid, adherent, top dose 20 µM) | 0.952 | > 20 µM
HUTU-80 (digestive system, adherent, top dose 20 µM) | 0.886 | 15.6 µM
HeLa (cervix, adherent, top dose 20 µM) | 0.933 | > 20 µM
Hep 3B2_1-7 (liver, adherent, top dose 20 µM) | 0.973 | > 20 µM
Hey (ovary, adherent, top dose 20 µM) | 0.942 | > 20 µM
Hs633T (fibrosarcoma, adherent, top dose 20 µM) | 0.978 | > 20 µM
Hs683 (glioma, adherent, top dose 20 µM) | 0.947 | > 20 µM
Hs746T (stomach, adherent, top dose 20 µM) | 0.792 | 12.8 µM
Hs766T (pancreas, adherent, top dose 20 µM) | 0.983 | > 20 µM
Hs939-T (melanoma, adherent, top dose 20 µM) | 0.985 | > 20 µM
Hs940-T (melanoma, adherent, top dose 20 µM) | 0.984 | > 20 µM
Hs-445 (Hodgkin lymphoma, suspension, top dose 20 µM) | 0.879 | 17.8 µM
